Target: human BCMA (B-cell maturation antigen) expressed on cells (human) (UniProt Q02223)
Assay: flow cytometry, hBCMA-expressing HEK293 cells against parental HEK293 cells

Sequence of UniProt Q02223 (Q02223 whole entry): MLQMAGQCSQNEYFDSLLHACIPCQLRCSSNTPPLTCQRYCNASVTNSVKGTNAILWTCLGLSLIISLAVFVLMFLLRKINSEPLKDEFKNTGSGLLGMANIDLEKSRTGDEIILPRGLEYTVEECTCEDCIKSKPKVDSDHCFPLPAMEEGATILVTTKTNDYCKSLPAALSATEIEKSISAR

fold selective binding (hBCMA-expressing HEK293 over parental HEK293): 4.2 fold
B1: BCMA-19 scFv (scFv)
scFv: [about 100 residues not spelt out]DGGDVWGQGTTVTVSSGGGGSGGGGSGGGGSQAVLTQPASVSGSPGQSITISCTGTSSDVGDYNYVAWYQQHPGKDPKLMIFEVINRPSGVSDRFSGSKSGNTASLDISGLQPEDEADYYCISYSRGSTPYVIGTGTKVTVL

Source: patent US20230365699A1
